PubChem BioAssay AID1745845 (National Center for Advancing Translational Sciences (NCATS), 2022)
Where “and” joins values, the source holds several entries; their conditions need not be identical. Equal values may be shown once. Hit rate of the full screen: of about 360,000 compounds, about 2,600 (0.72%) were called active. The shares of active, inactive and inconclusive entries below differ from those in the screen. Calls follow the shape of the dose curve; as a rule, active = well fitted inhibition curve with a large enough effect; inconclusive = small, poorly fitted or top-dose-only effect; inactive = no such curve, though single readings can be large or run the other way. Where the call is inconclusive, the potency comes from a doubtful curve fit.

Test: Primary qHTS for Inhibitors of ATXN expression; also: nearly all actives have a fitted effect of over 55% in size
Conditions: HEK-293 ATXN2-luciferase reporter, luminescence, 24 h; series mostly up to 57 µM
In short: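 qHTS (up to 57 uM final) was run with 24 h compound exposure of reporter cells at 37 °C. Each well was multiplexed: SteadyGlo luminescence measured ATXN2-luciferase expression after a fluorogenic Gly-Phe-AFC viability readout (25 uM final).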
Potency is read from the fitted curve at half-maximal effect; tags tell the direction and shape of the fitted curve.

SMILES | Potency
COCCCN1CCN(C2Cc3ccccc3Sc3ccc(Cl)cc32)CC1 (stereo unspecified) | inconclusive: 39.8 µM [inhibitor, single point]
NS(=O)(=O)c1ccc(CCNc2nc(C(F)(F)F)nc3ccccc23)cc1 | inconclusive: 15.8 µM [inhibitor, single point]
Cc1ccc2occ(CC(=O)N3CCN(c4cccc(Cl)c4)CC3)c2c1 | inconclusive: 39.8 µM [inhibitor, single point]
O=c1c(Cc2ccc(Cl)cc2)c(O)ccn1Cc1cccc(Cl)c1 | inactive
CCN(CC(=O)Nc1ccc(NC(C)=O)cc1)Cc1c(O)ccc2cc(Br)ccc12 | inactive
CCCN1CCN(CCCNC(=O)Cn2c(-c3cccs3)cc3cc(Cl)ccc32)CC1 | inconclusive: 28.2 µM [inhibitor, single point]
Cc1ccc(-c2nc(CS(=O)CC(=O)NCCCN3CCN(Cc4ccccc4)CC3)c(C)o2)cc1 (stereo unspecified) | inactive
CCC(=O)c1ccc(N2CCN(C(=O)c3ccc(Br)cc3)CC2)c(F)c1 | inactive
COc1ccc(C(=O)N/N=C/c2ccc(N(C)c3ccccc3)cc2)cc1 | active: 26.7 µM
Cc1ccccc1NC(=O)CSc1nnc(-c2ccco2)c(-c2ccco2)n1 | inactive
COc1ccc(CCNCC(O)COc2cccc(Br)c2)cc1 (stereo unspecified) | inconclusive: 0.267 µM [inhibitor, full curve]
Cc1c(CCC(=O)N2CCC(C(=O)NCCCCCC(=O)O)CC2)c(=O)oc2cc3oc4c(c3cc12)CCCC4 | inconclusive: 2.82 µM [inhibitor, partial curve, poor fit]
O=C(Nc1ccccc1)Nc1ccc2ncoc2c1 | inactive
COCCOc1ccc(C(F)(F)F)cc1NC(=O)c1ccccc1 | inactive
COc1ccc(/C=C2\C(=O)N(c3c(Cl)cc(Cl)cc3Cl)N=C2NC(=O)c2cccc([N+](=O)[O-])c2)cc1 | active: 31.6 µM
CCOc1ccc(NC(=O)CN(C)C(=O)CCCOc2ccc(Br)cc2)cc1OCC | inactive
Cc1ccc(N2CC(C(=O)Nc3ccccc3C(=O)NC3CCCCC3)CC2=O)cc1 (stereo unspecified) | inactive
CCSc1ccc(/C(N)=N/OC(=O)c2cccs2)cn1 | inactive
Cc1ccc(C)c(CSc2cn(CCNC(=O)c3ccccc3F)c3ccccc23)c1 | inconclusive: 39.8 µM [inhibitor, single point]
O=C(CSc1ncnc2sccc12)Nc1ccc(S(=O)(=O)N2CCOCC2)cc1 | inactive
c1ccc(-c2noc(-c3ccc4ccccc4c3)n2)nc1 | active: 2.24 µM
COC(=O)CNc1cc(S(=O)(=O)N2CCCCC2)ccc1Oc1ccc(C(=O)OC)cc1 | inconclusive: 39.8 µM [inhibitor, partial curve, poor fit]
O=C(COc1ccccc1[N+](=O)[O-])Nc1ccc(N2CCN(C(=O)c3cccs3)CC2)cc1 | inconclusive: 37.7 µM [inhibitor, single point]
CC(C)N(C(=O)CSc1nnc(NC(=O)c2cccs2)s1)C(C)C | inactive

SMILES | Potency
O=C(CSc1nnc(Cc2ccccc2)o1)NCc1ccc2c(c1)OCO2 | inconclusive: 9.47 µM [inhibitor, partial curve, poor fit]
CCn1nnc2cc(C(=O)Nc3cccc(C)c3C)ccc21 | inactive
COc1ccccc1CNC(=O)c1cc2ccc3ccc(C)[nH]c3c2n1 | inconclusive: 35.5 µM [inhibitor, single point]
Cc1ccc(/C=C/C(=O)c2ccccc2)cc1 | inactive
COc1ccc(C(NC(=O)c2cccnc2)c2cc(Cl)c3cccnc3c2O)cc1OC (stereo unspecified) | active: 15.8 µM
FC(F)(F)c1ccc(C=Cc2nc(COc3ccc(CCCCn4ccnn4)cc3)co2)cc1 | inconclusive: 17.2 µM [inhibitor, partial curve, poor fit]
Nc1c(N(Cc2ccccc2)C(=O)COc2ccc([N+](=O)[O-])cc2)c(=O)[nH]c(=O)n1Cc1ccccc1 | inconclusive: 31.6 µM [inhibitor, single point]
Cn1c(=O)c2cc(NC(=O)Nc3cccnc3)ccc2n1-c1ccc(C(C)(C)C)cc1 | inconclusive: 35.5 µM [inhibitor, single point]
Cc1ccc(OCCC(=O)N2CCN(c3ccc(O)cc3)CC2)cc1 | inconclusive: 3.98 µM [inhibitor, full curve, poor fit]
Cc1ccc(NC(=O)CN2C(=O)NC(C)(c3ccc(Cl)cc3)C2=O)c(Br)c1 (stereo unspecified) | inconclusive: 39.8 µM [inhibitor, single point]
COc1ccc(N2CCN(Cc3cc4c(cc3O)CCC4)CC2)cc1 | inactive
CC(C)(C)C(=O)CN1CCN(S(=O)(=O)c2ccc(F)cc2)CC1 | inactive
COc1cc(C(=O)NNC(=O)c2ccc3ccccc3n2)cc(OC)c1OC | inconclusive: 39.8 µM [inhibitor, single point]
Clc1ncnc2scc(-c3ccc(Br)cc3)c12 | inconclusive: 12.6 µM [inhibitor, partial curve, poor fit]
O=C(COC(=O)c1ccc([N+](=O)[O-])s1)Nc1ccccc1 | inactive
CC(=O)N1CCN(c2ccc(OC[C@H]3CO[C@](Cn4ccnc4)(c4ccc(Cl)cc4Cl)O3)cc2)CC1 | inconclusive: 25.1 µM [inhibitor, single point] and inconclusive: 24.3 µM [inhibitor, partial curve]
O=C(NCC1CCCO1)c1ccc(NC(=O)c2ccc(Br)cc2)cc1 (stereo unspecified) | inactive
COc1ccc(-c2noc(CSc3nnc(-c4ccccc4)n3C)n2)cc1 | inactive
Cc1cc(/C=N/NC(=O)CC2(C)OCCO2)c(C)n1-c1ccc(Cl)c(Cl)c1 | inconclusive: 10 µM [inhibitor, partial curve, poor fit]
COc1cccc(/C=N/NC(=O)c2cc(-c3ccccn3)nc3ccccc23)c1O | active: 5.01 µM
Cc1ccc(-n2cccc2C(=O)NS(=O)(=O)c2ccc(C)cc2)cc1 | inactive
Cn1c(=O)c2c(O)c(Cc3ccccc3)c(=O)n(C)c2n(C)c1=O | inactive
CCCS(=O)(=O)c1nc(S(=O)(=O)c2ccc(C)cc2)c(NCCCn2ccnc2)s1 | inactive
CC(=O)c1ccc(NC(=O)C2CCCN2S(=O)(=O)c2ccc(F)cc2)cc1 (stereo unspecified) | inactive

SMILES | Potency
CC(=O)[C@H]1CC[C@H]2[C@@H]3CCC4=CC(=O)CC[C@]4(C)[C@H]3CC[C@]12C | inconclusive: 31.6 µM [inhibitor, single point]
COc1ccc2oc(C(=O)OC(C)C(=O)N3C(C)CCCC3C)c(C)c2c1 (stereo unspecified) | inactive
O=C(OCC(=O)N1CCc2ccccc21)c1ccncc1 | inactive
Cc1ccc(NC2CCCN(C(=O)c3cc4ncccn4n3)C2)cc1C (stereo unspecified) | inactive
O=C(N/N=C/c1ccc(O)cc1O)c1ccc(CN2C(=O)c3cccc4cccc2c34)cc1 | inconclusive: 3.55 µM [inhibitor, full curve, poor fit]
O=S(=O)(Cc1cc(Cl)nc(-c2cccnc2)n1)c1ccccc1 | inconclusive: 25.1 µM [inhibitor, single point]
O=S(=O)(c1ccccc1)N1CN(c2ccc(F)cc2F)c2nc3ccccc3nc21 | inactive
COc1cccc(-c2ccc3c(N)c(C(=O)Nc4ccccc4C)sc3n2)c1 | inconclusive: 39.8 µM [inhibitor, single point]
O=C(Nc1cccc2ccccc12)N1CC=C(c2ccccc2)CC1 | inconclusive: 39.8 µM [inhibitor, partial curve, poor fit]
CC1CCCCN1S(=O)(=O)c1ccc(C(=O)N(CCCN(C)C)c2nc3ccc(Br)cc3s2)cc1 (stereo unspecified) | inconclusive: 35.5 µM [inhibitor, single point]
CCC(C(=O)NCCc1ccc(Cl)cc1)n1ccc2cc(S(=O)(=O)N3CCCCC3)ccc21 (stereo unspecified) | inactive
COc1ccc(CCNC(=O)C(=O)NCC(c2cccnc2)N2CCN(c3ccccc3)CC2)cc1 (stereo unspecified) | inconclusive: 25.1 µM [inhibitor, single point]
Cc1ccc(NC(=O)C2CCCN(S(=O)(=O)c3ccc4c(c3)CCCC(=O)N4)C2)cc1Cl (stereo unspecified) | inconclusive: 39.8 µM [inhibitor, single point]
C/C(=N\NC(=O)c1ccc([N+](=O)[O-])cc1)c1cc2ccccc2oc1=O | inconclusive: 25.1 µM [inhibitor, partial curve, poor fit]
Cc1ccc(Cl)cc1N1CCN(C(=O)C2CCCN(Cc3nc(-c4cccc(Cl)c4)oc3C)C2)CC1 (stereo unspecified) | inconclusive: 15.8 µM [inhibitor, partial curve, poor fit]
O=C(Nc1ccc(N2CCOCC2)cc1)C1CCN(S(=O)(=O)Cc2ccccc2)CC1 | inconclusive: 39.8 µM [inhibitor, partial curve, poor fit]
Cc1cccc(C2c3[nH]c4ccccc4c3CCN2C(=O)c2cc(-c3cccn3C)n[nH]2)n1 (stereo unspecified) | inconclusive: 15.8 µM [inhibitor, partial curve, poor fit]
CCOc1ccc(NC(=O)CN(C)S(=O)(=O)c2ccc3[nH]c4c(c3c2)CCCC4)cc1 | inconclusive: 35.5 µM [inhibitor, single point]
CN1CCN(S(=O)(=O)c2cccc(C(=O)Nc3nc(-c4ccccc4)cs3)c2)CC1 | inactive
COc1cccc(CNc2ccccc2O)c1OCc1ccccc1F | inactive
Oc1c(C(Nc2ccccn2)c2cccnc2)cc(Cl)c2cccnc12 (stereo unspecified) | active: 22.4 µM
Cc1ccc(S(=O)(=O)N2[C@@H](c3ccc(Br)cc3)C(C(=O)O)=CC[C@H]2c2ccc(Cl)cc2)cc1 | inactive
Cc1cc(=O)oc2cc(Oc3ncccc3[N+](=O)[O-])ccc12 | inactive
